The whole screen tested about 310,000 compounds, of which about 14,000 (4.5%) showed an effect of 50% or more. The effect is printed as a negative number. The list shows a part of the results.
What follows are molecules tested against human ether-à-go-go-related gene (hERG) potassium channel (human, UniProt Q12809) (assay: primary screen, population patch clamp on CHO cells stably expressing hERG).
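Also: peak tail current of the secondary pulse compared with the same well before compound.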

Sequence of human ether-à-go-go-related gene (hERG) potassium channel (Q12809 whole entry, looked up): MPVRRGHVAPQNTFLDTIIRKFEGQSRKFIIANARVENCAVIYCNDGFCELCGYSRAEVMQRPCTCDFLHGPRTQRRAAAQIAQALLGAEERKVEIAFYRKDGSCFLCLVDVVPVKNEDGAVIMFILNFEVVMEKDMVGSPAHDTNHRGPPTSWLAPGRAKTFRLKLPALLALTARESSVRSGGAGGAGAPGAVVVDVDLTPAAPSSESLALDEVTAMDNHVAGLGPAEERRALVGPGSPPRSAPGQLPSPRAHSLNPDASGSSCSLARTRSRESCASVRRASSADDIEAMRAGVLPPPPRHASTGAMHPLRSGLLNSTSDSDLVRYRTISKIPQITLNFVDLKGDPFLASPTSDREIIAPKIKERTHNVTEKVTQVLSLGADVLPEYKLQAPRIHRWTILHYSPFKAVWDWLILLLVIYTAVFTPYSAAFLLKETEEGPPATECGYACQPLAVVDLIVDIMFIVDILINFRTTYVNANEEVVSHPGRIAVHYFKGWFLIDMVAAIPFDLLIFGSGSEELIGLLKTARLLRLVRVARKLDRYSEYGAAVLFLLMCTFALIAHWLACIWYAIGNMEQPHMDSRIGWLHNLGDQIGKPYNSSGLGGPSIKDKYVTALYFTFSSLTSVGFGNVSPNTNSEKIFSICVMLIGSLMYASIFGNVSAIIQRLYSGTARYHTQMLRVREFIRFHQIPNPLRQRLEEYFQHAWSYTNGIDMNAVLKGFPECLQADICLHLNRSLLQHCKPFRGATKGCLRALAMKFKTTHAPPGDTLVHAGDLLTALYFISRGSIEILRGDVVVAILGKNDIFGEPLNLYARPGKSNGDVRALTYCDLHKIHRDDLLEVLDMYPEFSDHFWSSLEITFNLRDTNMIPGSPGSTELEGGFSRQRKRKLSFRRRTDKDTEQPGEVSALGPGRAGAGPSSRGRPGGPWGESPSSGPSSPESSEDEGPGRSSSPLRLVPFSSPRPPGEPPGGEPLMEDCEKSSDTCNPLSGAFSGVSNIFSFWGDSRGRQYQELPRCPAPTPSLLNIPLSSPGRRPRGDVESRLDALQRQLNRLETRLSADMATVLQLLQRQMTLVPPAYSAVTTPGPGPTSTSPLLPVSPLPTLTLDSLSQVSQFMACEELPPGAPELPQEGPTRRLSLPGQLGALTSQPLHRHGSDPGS

Compound	hERG current change (%, negative = inhibition) at 10uM [%]
CCOc1ccc(NC(=O)c2ccc3c(c2)OCCO3)cc1S(=O)(=O)N(CC)CC	-22.4
COc1ccccc1N(CC(=O)Nc1ccccc1C(=O)NC(C)C)S(C)(=O)=O	10.9
O=C(OC(C(=O)NC1CCCC1)c1cccnc1)C1=Cc2ccccc2OC1 (centres unmarked)	-4.75
COCCCNC(=O)CCCn1c(=O)c2ccccc2n(CC(=O)Nc2c(C)cc(C)cc2C)c1=O	-0.964
O=C(CN1CCCCC1)NC(=O)NCc1ccccc1	14.3
O=C(N/N=C/c1ccc(O)c(O)c1O)/C(=C/c1ccc([N+](=O)[O-])cc1)NC(=O)c1ccccc1	12.4
Cl.O=C(O)c1ccc(CN2CCCCC2)o1	10.7
O=C(NNS(=O)(=O)c1ccccc1)c1ccncc1	15.1
CCCCNC(=O)C(=O)Nc1cc2c3c(c1)CCC(=O)N3CCC2	8.48
Cc1ccc(/C=C(\NC(=O)c2ccccc2)C(=O)NCCc2ccccn2)o1	-12.8
O=C(NCCO)C(=O)Nc1cc2c3c(c1)CC(=O)N3CCC2	16.7
CC(C)(C)N=Cc1cc(-c2ccccc2)sc1O	-17.2
COc1ccc(CC(=O)NCC(=O)Nc2ccccc2Br)cc1	12
Clc1ccc(NCc2cccnc2)cc1	-11.6
CN(CC(=O)N1CCN(c2ccccc2)CC1)S(=O)(=O)c1cnc[nH]1	15.1
O=C(O/N=C1/CCCc2occc21)c1ccccc1	4.19
CCOC(=O)c1nn(-c2ccccc2)c(C#N)c1NC(=O)c1nn(CC)cc1Br	7.47
Cc1ccc(OCC(=O)N(C)CC(=O)N(CC(C)C)c2c(N)n(CC(C)C)c(=O)[nH]c2=O)c(C)c1	16.8
CCC(=O)Nc1ccc(C(=O)Cn2ncc(Cl)c(Cl)c2=O)cc1	-5.04
CCC1(CC)C(=O)N(C)C(=O)NC1=NCc1ccccc1	-4.02
CCN(CC)CCNC(=O)c1ccc2c(c1NCCO)C(=O)c1ccccc1C2=O	-28.5
O=C(O)CC(NC(=O)C12CC3CC(CC(C3)C1)C2)c1ccc(F)cc1 (centres unmarked)	17.6

Compound	hERG current change (%, negative = inhibition) at 10uM [%]
Cc1ccc(NC(=S)N(CCN(C)C)Cc2cc3cc(C)cc(C)c3[nH]c2=O)cc1	-7.41
N#Cc1ccc(C23CC4(C2)[C@H](CN(Cc2ccc(C(F)(F)F)cc2)[C@@H]4c2ccccc2)C3c2ccc(C(F)(F)F)cc2)cc1 (some centres unmarked)	16.8
COc1cc(C(=O)NC(c2ccccc2)c2ccccc2)cc(OC)c1C	15.2
CC(=O)/C=C/c1ccc2ccccc2n1	-0.352
CCC(C)n1[nH]c(=O)c2c(C)cc(C)nc21 (centres unmarked)	16.1
CCOC(=O)c1ccccc1NC(=O)C1=COCCO1	9.9
CCC(=O)c1cn(CC(=O)O)c2ccccc12	24.8
CS(=O)(=O)Nc1ccc(C2=NN(S(C)(=O)=O)C(c3ccccc3)C2)cc1 (centres unmarked)	-73.6
COc1cccc(Oc2cn[nH]c2-c2ccc(O)cc2O)c1	-5.4
CC(=O)N(C)c1ccc(NS(=O)(=O)c2cc(Cl)ccc2Cl)cc1	3.49
CCN(CC)P(=O)(NC(=O)C(Cl)(Cl)Cl)N(CC)CC.[Cl-].[Cl-].[Cl-].[Nd+3]	6.12
CCOC(=O)C(/C(C)=N/NC(=O)c1ccccc1[N+](=O)[O-])C(C)C (centres unmarked)	-1.38
Cc1ccccc1Cn1cnc2c(oc3ccccc32)c1=O	9.69
COc1ccc(N2C(=O)CS(=O)C(c3ccccc3)C2=O)cc1 (centres unmarked)	-7.59
CCOC(=O)/C(C#N)=C/c1ccc(OCC(=O)Nc2ccc(C)c(C)c2)c(OC)c1	6.06
CCNC(=O)CC1SC(=Nc2ccc(Cl)cc2)N(CC)C1=O (centres unmarked)	-0.837
CCOC(=O)c1ccc(NC(=O)C2CCCN(S(=O)(=O)c3ccc(F)cc3)C2)cc1 (centres unmarked)	-15.1
COC(=O)CN1C(=O)C2(C(C#N)=C(N)Oc3ccccc32)C2=C1CC(C)(C)CC2=O (centres unmarked)	17.1
O=C(Nc1cc(Cl)ccc1F)c1ccc(-n2cncn2)c([N+](=O)[O-])c1	-30.1
O=S(=O)(NC1CC1)c1ccc2c3c(cccc13)CC2	6.08
S=C(N/N=C/c1ccc2ncccc2c1)Nc1cccnc1	8.66
Cc1ccc(NC(=O)C2CC(=O)N(c3ccc4c(c3)OCCO4)C2)nc1 (centres unmarked)	-6.36

— paper PMC4336329 (PLoS ONE, 2015)
